Test results published in the supplement of paper PMC12217912.
This is one part of the list. The full chains were built here from the parent and the listed change. Values near 0.05 are background.

B1: TEV protease; numbered along this chain (parent)
chain: MGESLFKGPRDYNPISSSICHLTNESDGHTTSLYGIGFGPFIITNKHLFRRNNGTLVVQSLHGVFKVKDTTTLQQHLVDGRDMIIIRMPKDFPPFPQKLKFREPQREERICLVTTNFQTKSMSSMVSDTSCTFPSGDGIFWKHWIQTKDGQCGSPLVSTRDGFIVGIHSASNFTNTNNYFTSVPKNFMELLTNQEAQQWVSGWRLNADSVLWGGHKVFMVKPEEPFQPVKEATQL

Variants of: B1
Test: raw area under fraction-flipped curve 0-4 h after induction (AUC4h, not background-subtracted), DNA-recorder readout of cleavage of the substrate (dimensionless); higher = more cleavage of the substrate by the protease variant
Conditions: temperature: 34 °C; time window: 0-4 h after rhamnose induction
Procedure: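 In vivo DNA recorder in E. coli TOP10(DE3) ΔrhaA at 34 °C. Each TEVp single-site mutant (parent TEVp 0) is paired with a single-site variant of the 7-mer TEVs (canonical ENLYFQ|S). The substrate sits between flexible linkers in a Bxb1-sfGFP-TEVs-SsrA fusion, so cleavage stabilises Bxb1 and speeds flipping of a recombination array, read by NGS. The value is the raw area under the fraction-flipped curve over 0-4 h after rhamnose induction (AUC4h), with ≥20 reads per time point. It is not background-subtracted; inactive controls average about 0.047.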
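Also: Bxb1 expression induced with 0.2% (w/v) L-rhamnose at OD600 near 0.5, cultures sampled hourly, flipped fraction per protease–substrate barcode pair counted by paired-end Illumina sequencing.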

Variant	area with substrate DNLYFQS	area with substrate GNLYFQS	area with substrate HNLYFQS	area with substrate LNLYFQS	area with substrate MNLYFQS	area with substrate NNLYFQS	area with substrate QNLYFQS	area with substrate RNLYFQS	area with substrate WNLYFQS	area with substrate INLYFQS	area with substrate PNLYFQS	area with substrate SNLYFQS	area with substrate TNLYFQS	area with substrate FNLYFQS	area with substrate KNLYFQS	area with substrate VNLYFQS	area with substrate YNLYFQS
F101T	0.0503	0.0575	0.0479	0.06	0.0553	0.0556	0.0399	0.0571	0.0704	–	–	–	–	–	–	–	–
D91V	0.0803	0.0644	–	0.0636	–	–	–	–	–	0.0571	0.0657	0.0686	0.0648	–	–	–	–
K98Y	0.084	0.0663	0.0764	0.0668	0.0637	0.0789	–	0.0676	0.0713	0.0769	0.0743	0.0558	–	0.0516	0.0746	0.0875	0.0549
S127F	0.081	0.086	0.0664	0.0773	–	0.0735	–	0.0632	0.0547	0.0775	0.0675	0.0814	0.0663	–	0.0674	–	–
R102K	0.0803	0.0779	0.0569	0.0741	0.0645	0.0756	–	–	0.0591	–	0.0762	–	0.0587	–	0.0492	–	–
I110C	0.0933	0.0583	0.0665	0.056	0.0582	0.0784	–	0.0689	0.0588	0.0616	0.0711	0.0563	0.0675	–	0.0445	0.0486	0.07
T114C	0.0861	–	0.0444	–	–	0.0468	–	–	–	–	–	0.077	0.0762	–	0.0596	–	–
C111V	0.0857	0.0826	0.0517	0.0569	–	–	–	–	0.0508	–	0.0543	0.042	0.0666	–	–	0.07	0.077
C111F	0.0828	0.0684	0.0602	0.0397	0.0834	0.0623	–	0.0596	0.063	–	0.0667	0.079	0.0606	0.048	–	0.0735	–
E107C	0.106	0.0715	0.0676	0.0612	0.0542	–	–	–	–	–	–	–	0.0651	–	0.0644	–	0.0645
V126S	0.11	–	0.0683	0.0616	–	0.0554	0.0624	–	0.0578	0.0314	–	0.0802	0.0804	0.0655	0.0701	0.066	0.0693
K120R	0.0665	0.0986	0.0662	0.0569	0.0648	0.0716	0.0736	–	0.0594	0.0563	0.0802	0.0582	0.0691	0.0617	0.0774	0.0646	0.0541
K120M	0.0545	0.0874	0.063	0.0631	–	0.0686	–	–	0.0531	–	0.0721	0.0606	–	0.0545	0.0883	0.0408	0.0677
Q105H	0.0861	0.0623	–	0.0565	0.0749	–	–	–	–	–	–	0.0761	0.046	–	–	–	–
E108L	0.0621	0.055	0.0628	–	0.0393	0.0596	–	–	0.0537	–	0.0544	–	0.057	–	0.0619	–	0.053
E108H	0.0382	0.0517	0.0544	0.0694	0.0526	–	–	–	0.0317	0.0593	0.0381	0.0791	0.075	–	0.0607	0.0564	0.0371
E108C	0.0628	0.0676	0.0602	–	0.0657	–	0.0708	–	0.0554	0.0369	0.05	–	0.0557	–	0.0532	–	–
M122S	0.0969	0.0715	0.0683	0.0643	–	0.0699	–	–	0.0628	–	0.0588	–	0.0704	–	0.0637	–	0.0401
M122C	0.0638	0.0904	0.065	0.0824	0.0547	–	0.0653	0.0754	–	0.0691	0.0685	0.0589	0.0695	0.0709	0.0614	0.0847	0.0421
M122D	0.102	–	0.0608	0.0731	0.0412	0.0766	–	–	–	–	0.0799	0.0673	0.0608	0.0863	0.0769	0.0461	0.0863
S121R	0.0852	0.0734	0.0801	0.0705	0.0756	0.0616	–	0.038	0.0611	0.0649	0.0686	0.0802	0.0676	0.0702	0.0784	0.0742	0.0605
P94M	0.0891	0.0691	–	0.0647	–	0.0734	–	–	0.0576	–	0.0691	0.0106	0.0612	0.0635	–	–	0.0586
P93R	0.0791	–	0.048	–	–	–	–	–	0.0761	–	0.0733	–	0.0755	–	–	0.0654	0.0935
P93H	0.0866	0.0631	0.06	–	0.0626	0.0657	–	–	0.0687	0.0368	0.0615	0.0677	0.0622	–	–	–	–
S123F	0.0824	0.0732	0.0619	0.0661	0.0664	0.0673	–	–	0.0676	–	0.054	0.0604	0.0616	0.0625	0.0738	–	0.0665
F92P	0.0387	–	0.0654	0.0737	0.0528	0.0514	–	0.0528	0.0471	–	0.047	0.0531	0.0278	–	0.0613	0.0541	0.0503
L112P	0.0647	0.0515	0.0669	0.0514	0.0626	0.0515	–	0.0568	0.0495	0.0488	0.0512	0.0604	0.0415	0.0411	0.059	–	–
T115D	0.119	0.0413	0.0618	–	0.0562	0.0736	0.0571	0.0722	0.0569	0.067	–	0.066	–	0.0672	0.0716	–	0.0646
T115V	0.0901	–	0.0634	0.0497	–	–	–	0.0726	0.071	0.0671	0.0462	–	0.0558	0.0551	0.0975	–	–
T115S	0.0817	0.0633	0.0742	0.0629	–	0.065	0.0583	–	0.0574	0.0688	–	0.0622	0.066	0.0661	–	0.0754	0.0674
